# Experimental data: PubChem BioAssay AID686970 (National Center for Advancing Translational Sciences (NCATS), 2013)
# The whole screen tested about 360,000 compounds, of which about 6,000 (1.7%) were called active. The inconclusive results got no clear call from the source; some entries with a clear call stand among them for comparison. Calls follow the shape of the dose curve; as a rule, active = well fitted cell-killing curve with a large enough effect; inconclusive = small, poorly fitted or top-dose-only effect, or effect the other way; inactive = flat fitted curve, though single readings scatter. No potency is given beside an inconclusive call; the fits are too rough.
# Assay: qHTS for induction of synthetic lethality in tumor cells producing 2HG: qHTS for the HT-1080-NT fibrosarcoma cell line;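 also: NT is the 2HG producing partner of a matched IDH1 knockdown line; nearly all actives have a fitted effect of over 55% in size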;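 as to activity, negative = less viability: 0% = DMSO-treated cells and -100% = media-only wells without cells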
# Conditions: HT-1080-NT fibrosarcoma viability, CellTiter-Glo ATP luminescence, 48 h; activity, negative = less viability: at 46.1 µM (top of the series) unless noted
# In short: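 Luminescent CellTiter-Glo readout after 48 hours of compound exposure at 37 degrees C defined viability of HT-1080-NT cells. Activity was normalized to DMSO wells and cell-free media wells; concentration-response curves were fitted and assigned curve classes.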
# Potency is read from the fitted curve at half-maximal effect; tags tell the direction and shape of the fitted curve.
Structure (SMILES),"activity, negative = less viability",Potency
CCOC(=O)C(NC(=O)c1ccccc1)(Nc1nnc(C)s1)C(F)(F)F (configuration not stated),inactive: -3.13%,
OC(c1cccc(Cl)c1)c1nc(-c2ccccc2)cs1 (configuration not stated),,"inconclusive [cytotoxic, single point]"
COc1ccc2cc(CN(Cc3cccnc3)S(=O)(=O)c3ccccc3)c(=O)[nH]c2c1,inactive: -7.23%,
COc1cc(CNc2ncnc3c2ncn3[C@H]2CN(Cc3ccco3)C[C@@H](CO)O2)cc(OC)c1OC,inconclusive: 31.3%,
CC(=O)c1cnc(Nc2nc(C)c3cc(C)c(C)cc3n2)nc1C,,"inconclusive [rising, partial curve]"
N#CC(=C1C=C(Br)C(=NO)C=C1Cl)c1cccc2ccccc12,,"inconclusive [cytotoxic, single point]"
Cc1ccc2nc(NCc3ccccc3)[nH]c2c1,,active: 5.8 µM
Clc1ccc(CN2C3=NCCCN3c3ccccc32)c(Cl)c1,,"inconclusive [cytotoxic, single point]"
Cc1ccc(S(=O)(=O)N(C)c2ccc(C(=O)N3CCCCC3)cc2)cc1,inactive: -1.04%,
CC1CC(C)(C)CC2(C1)NC(=O)N(CC(=O)N(Cc1ccccc1)c1ccccc1)C2=O (configuration not stated),,"inconclusive [cytotoxic, partial curve, poor fit]"
CN(C)S(=O)(=O)c1ccc(C(=O)OCC(=O)Nc2ccc3c(c2)OCO3)cc1,inactive: 5.81% [at 9.24 µM],
CC(C)C(=O)N(c1cc2sc(=O)oc2c2ccccc12)S(=O)(=O)c1cccs1,,active: 11.2 µM
Cc1cc(C)n(-c2ccc(C(=O)N3CC(C)OC(C)C3)cc2)n1 (configuration not stated),inactive: 1.12%,
O=C(O)/C=C/C(=O)N1CCN(Cc2ccc3c(c2)OCO3)CC1,inactive: -1.56%,
COc1ccc(NC2=C(NC(C)=O)C(=O)c3ccccc3C2=O)cc1,inactive: -26.2%,
COc1cc([N+](=O)[O-])cc(/C=N/NC(=O)c2ccc(NC(=O)c3ccc(C)cc3)cc2)c1O,,"inconclusive [cytotoxic, partial curve, poor fit]"
CCn1c(N2CCN(S(=O)(=O)c3ccccc3C(F)(F)F)CC2)nc2ccccc21,,"inconclusive [cytotoxic, single point]"
O=C(Nc1ccc(Cl)c(Cl)c1)Nc1nnc(-c2ccncc2)s1,inconclusive: -8.93% [cytotoxic],
O=C(C[C@H]1C(=O)N(Cc2ccccc2)C[C@@H]1Cc1ccccc1)Nc1ccc(Br)cc1,,"inconclusive [cytotoxic, single point]"
COc1ccc(C(=O)Nc2cccc(/C(C)=N\NC(=O)c3ccoc3C)c2)cc1OC,inactive: -18.3%,
Cc1c(CCOC(=O)CC23CC4CC(CC(C4)C2)C3)sc[n+]1CC(=O)c1ccccc1,inactive: -22.1%,
Cc1ccccc1NC(=O)OCCN1CCN(Cc2ccccc2)CCC1=O,,"inconclusive [rising, single point]"
CC1CCN(CC(=O)n2c3c(c4ccccc42)CCCC3)CC1,,"inconclusive [cytotoxic, single point]"
COc1ccccc1Cn1c(=S)[nH]c2cc(C(=O)NCCN(C)C)ccc2c1=O,inactive: -25.5%,

Structure (SMILES),"activity, negative = less viability",Potency
C/C=C/Cn1c(SCc2ccc(Cl)cc2)nc2c1c(=O)[nH]c(=O)n2C,,"inconclusive [cytotoxic, single point]"
COCCNC(=O)C1CCCN(C(=O)Cc2cccc3ccccc23)CC1 (configuration not stated),,"inconclusive [rising, single point]"
CC(=O)OC[C@H]1O[C@@H](n2ncc(=O)[nH]c2=O)[C@H](OC(C)=O)[C@@H]1OC(C)=O,inactive: -7.95%,
COc1cc(-c2cc(=O)c3c(O)c(OC)c(OC)c(O)c3o2)ccc1O,,"inconclusive [cytotoxic, partial curve]"
COc1cc2c(c(OC)c1OC)-c1ccc(OC)c(=O)cc1C(NC(=O)c1ccccc1)CC2 (configuration not stated),,active: 0.0731 µM
Cc1cccc(NC(=O)CN2C(=O)CCS(=O)(=O)c3ccccc32)c1C,inconclusive: 31.4%,
COCCn1c(SCC(=O)Nc2ccc(C(C)=O)cc2)nc2c([nH]c3ccccc32)c1=O,,"inconclusive [cytotoxic, partial curve]"
CCC1(CC)NC(=O)N(CC(=O)Nc2sc3c(c2C(N)=O)CCC3)C1=O,inactive: 0.422%,
O=C(c1ccc2c3c(cccc13)CC2)C1CCCN(Cc2ccc(OCCO)cc2)C1 (configuration not stated),,"inconclusive [cytotoxic, single point]"
O=C(CCl)Nc1cccc2ncccc12,,"inconclusive [cytotoxic, single point]"
Cc1ccc(S(=O)(=O)NCC(=O)N(CC(=O)NC2CCCC2)CC2CCCO2)cc1 (configuration not stated),inactive: 14.1%,
S=C(NCCc1cccc(Cl)c1)NC1CCCCC1,,"inconclusive [cytotoxic, single point]"
O=C(Nc1ccn(CCCN2CCN(Cc3cccc4ccccc34)CC2)c(=O)n1)OCc1ccccc1,,"inconclusive [cytotoxic, partial curve]"
O=C(O)CSCC(=O)Nc1ccc(C2CCCCC2)cc1,inactive: -0.927%,
CCN1CCN(c2ncc(C(=O)Nc3cc(Cl)ccc3OC)c3ccccc23)CC1,inactive: -29.6%,
CCC(=O)Nc1ccccc1C(=O)OCc1ccc(C(=O)c2ccccc2)cc1,inactive: -5.03%,
CC1=NN(c2ccccc2)C(=O)C1C(=O)c1ccc(Cl)cc1 (configuration not stated),,"inconclusive [cytotoxic, partial curve]"
COc1cc(OC)c2c(-c3cccc(-c4cccc(C)c4)c3)cc(=O)oc2c1,,"inconclusive [cytotoxic, full curve]"
O=C(CSc1nc(-c2ccccc2)ns1)N1CCOCC1,,"inconclusive [rising, partial curve]"
Cc1[nH]n(-c2ccccc2)c(=O)c1/C=N/NC(=O)c1ccc(O)cc1O,,"inconclusive [cytotoxic, partial curve]"
COc1cc2c(c(OC)c1OC)-c1ccc(SC)c(=O)cc1C(NC(=O)c1ccccc1)CC2 (configuration not stated),,"inconclusive [cytotoxic, full curve]"
O=C(Nc1ccc(-n2cccn2)cc1)C1CCCCN1Cc1cccc2cccnc12 (configuration not stated),,"inconclusive [cytotoxic, single point]"
CCOc1ccc(-n2nc3c(SCCN4CCCC4)nnc(C)c3c2C)cc1,,"inconclusive [cytotoxic, single point]"
COC(=O)C1CC23C=CCN4CCC5(c6ccccc6NC15C2C)C43 (configuration not stated),,active: 0.58 µM

Structure (SMILES),"activity, negative = less viability",Potency
COc1cc2c(cc1OC)C(=S)NC(C)(C)C2,,active: 10 µM
Cc1ccc(NC(=S)NC2CC3CCC(C2)N3Cc2ccco2)c(C)c1 (configuration not stated),,"inconclusive [cytotoxic, partial curve]"
CSc1ccc(/C=N\Nc2nncn2N)cc1,,"inconclusive [cytotoxic, single point]"
O=C(C1=C(O)C(=O)N(CCN2CCOCC2)C1c1cccc(Br)c1)c1cccs1 (configuration not stated),,"inconclusive [rising, single point]"
Cc1nnc(SCC(=O)Nc2cccc(S(=O)(=O)N(C)c3ccccc3)c2)s1,inactive: 2.4%,
CCOc1ccc(Br)cc1C1=CC(=O)C[C@H](c2ccc(OC)cc2)C1,,"inconclusive [cytotoxic, full curve]"
N#CC(C#N)=CC1=C2OC(c3ccccc3)=CC(c3ccccc3)=C2CCC1,inactive: 7.79%,
COc1cc2c(cc1OC)CN(C(=O)c1oc3ccccc3c1C)CC2,inactive: -29.1%,
CCc1ccc(/C=C/c2c([N+](=O)[O-])c(=O)n(C)c(=O)n2C)cc1,,"inconclusive [cytotoxic, single point]"
COc1ccc(OC)c(NC(=O)c2nc(S(=O)(=O)Cc3ccccc3)ncc2Cl)c1,,active: 4.61 µM
CCN(CC)CCNc1ccc(CO)c2oc3ccccc3c(=O)c12,,"inconclusive [cytotoxic, single point]"
COc1ccc(-n2nnc3c(=O)n(C/C=C/c4ccccc4)cnc32)cc1,inactive: 0.783%,
CCOc1ccc(C)cc1S(=O)(=O)n1cnc2ccccc21,,active: 9.2 µM
CC1=NN(c2ccc(C)c(C)c2)C(=O)/C1=C\C=C\c1ccc([N+](=O)[O-])o1,,"inconclusive [cytotoxic, single point]"
COc1cc(/C=N/NC(=O)c2cccc(N3CCCC3=O)c2)ccc1O,inactive: 22.4%,
CN1C(=O)C(O)(CC(=O)c2ccccc2O)c2cc(Br)ccc21 (configuration not stated),,active: 16.4 µM
NC(=O)c1ccsc1NC(=O)CCS(=O)(=O)c1ccccc1,inactive: -11.3%,
C=CCNc1nc(NCCNC(C)=O)c2sc(-c3ccccc3)cc2n1,,"inconclusive [cytotoxic, single point]"
COc1ccc2c(O)c(-c3c(C)cc(C)cc3C)c(=O)[nH]c2c1,inactive: 20.7%,
COc1ccc(CCn2c(=S)[nH]c3cc(C(=O)NCc4ccco4)ccc3c2=O)cc1OC,,"inconclusive [cytotoxic, single point]"
CCCCc1cc(O)c(CCCC)c(O)c1,,"inconclusive [cytotoxic, single point]"
COc1ccccc1-c1cccc(-c2nc(C(=O)Nc3nccs3)cc3c2[C@H](CCO)N(C(C)=O)C3)c1,,"inconclusive [cytotoxic, partial curve]"
Cc1ccc(C(=O)c2nc3c(n2O)CCCC3)cc1,,"inconclusive [rising, partial curve]"
COc1ccc(NS(=O)(=O)c2cc(N/C(=N\S(=O)(=O)c3ccccc3)c3ccc(F)cc3)ccc2Cl)cc1,,"inconclusive [cytotoxic, single point]"
